# Source: PubChem BioAssay AID1347165 (National Center for Advancing Translational Sciences (NCATS), 2019)
# The whole screen tested about 220,000 compounds, of which about 5,700 (2.6%) were called active. The shares of active, inactive and inconclusive entries below differ from those in the screen. Calls follow the shape of the dose curve; as a rule, active = well fitted inhibition curve with a large enough effect; inconclusive = small, poorly fitted or top-dose-only effect; inactive = no such curve, though single readings can be large or run the other way. Where the call is inconclusive, the potency comes from a doubtful curve fit.
# Target: Lysine-specific demethylase 5B (Homo sapiens) (UniProt Q9UGL1)
# Test: Primary screen for KDM5B Histone Demethylases FDH-coupled qHTS; also: nearly all actives have a fitted effect of over 70% in size; as to activity change, negative = inhibition: 0% is about no effect
# Details: FDH-coupled NADH fluorescence (FDH is formaldehyde dehydrogenase); activity change, negative = inhibition: at 57.7 µM (top of the series) unless noted
# Method in brief: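 Compound dilutions met 200 nM (final) KDM5BΔAP for 10 min at room temperature before substrate addition. The substrate mix held 12.5 µM H3K4me3 with cofactors 25 µM α-ketoglutarate and 50 µM Fe²⁺. NADH signal gain over 30 min defined activity.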
# Potency is read from the fitted curve at half-maximal effect; tags tell the direction and shape of the fitted curve.
# UniProt Q9UGL1, sequence (Q9UGL1 whole entry, looked up): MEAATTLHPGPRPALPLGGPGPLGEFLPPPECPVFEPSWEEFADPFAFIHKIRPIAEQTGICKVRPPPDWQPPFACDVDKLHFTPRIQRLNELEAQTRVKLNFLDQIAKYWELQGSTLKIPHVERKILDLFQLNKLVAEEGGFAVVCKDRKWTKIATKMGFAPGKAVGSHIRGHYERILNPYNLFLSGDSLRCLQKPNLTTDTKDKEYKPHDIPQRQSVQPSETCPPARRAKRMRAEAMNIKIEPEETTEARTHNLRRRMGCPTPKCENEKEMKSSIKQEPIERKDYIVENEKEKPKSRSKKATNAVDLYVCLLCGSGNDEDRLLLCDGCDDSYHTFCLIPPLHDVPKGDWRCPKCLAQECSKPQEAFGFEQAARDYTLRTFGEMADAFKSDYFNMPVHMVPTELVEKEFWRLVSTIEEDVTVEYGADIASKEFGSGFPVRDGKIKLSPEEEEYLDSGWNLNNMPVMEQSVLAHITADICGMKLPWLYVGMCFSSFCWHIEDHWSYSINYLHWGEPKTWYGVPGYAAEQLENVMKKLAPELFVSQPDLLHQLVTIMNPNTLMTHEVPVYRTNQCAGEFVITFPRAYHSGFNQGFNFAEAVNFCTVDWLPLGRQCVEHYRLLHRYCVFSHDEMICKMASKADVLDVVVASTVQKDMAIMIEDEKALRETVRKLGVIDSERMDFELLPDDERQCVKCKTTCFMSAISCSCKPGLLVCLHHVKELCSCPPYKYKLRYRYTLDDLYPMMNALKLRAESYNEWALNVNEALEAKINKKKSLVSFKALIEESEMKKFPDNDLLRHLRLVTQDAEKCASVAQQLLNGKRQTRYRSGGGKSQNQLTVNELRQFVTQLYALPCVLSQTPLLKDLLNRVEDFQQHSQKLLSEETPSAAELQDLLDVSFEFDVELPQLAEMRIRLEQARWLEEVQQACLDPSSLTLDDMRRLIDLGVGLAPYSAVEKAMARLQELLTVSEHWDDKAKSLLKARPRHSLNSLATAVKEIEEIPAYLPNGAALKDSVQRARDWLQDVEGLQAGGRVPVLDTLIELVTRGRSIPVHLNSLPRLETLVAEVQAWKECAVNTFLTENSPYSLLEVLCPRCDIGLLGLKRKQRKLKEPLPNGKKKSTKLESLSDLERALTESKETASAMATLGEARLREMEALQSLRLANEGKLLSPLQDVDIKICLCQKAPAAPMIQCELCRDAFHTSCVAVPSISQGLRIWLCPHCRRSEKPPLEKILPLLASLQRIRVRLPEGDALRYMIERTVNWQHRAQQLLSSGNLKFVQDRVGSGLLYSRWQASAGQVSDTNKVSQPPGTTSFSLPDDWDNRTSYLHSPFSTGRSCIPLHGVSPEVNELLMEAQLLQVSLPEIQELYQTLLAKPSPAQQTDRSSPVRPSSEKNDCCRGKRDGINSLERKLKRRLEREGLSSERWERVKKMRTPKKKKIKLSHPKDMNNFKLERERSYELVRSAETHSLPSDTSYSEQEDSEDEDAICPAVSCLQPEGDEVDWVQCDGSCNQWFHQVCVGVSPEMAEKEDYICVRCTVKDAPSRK
Structure (SMILES),Potency,"activity change, negative = inhibition"
Cc1cc(C(=O)OCC(=O)NCc2ccc(F)cc2)c2ccccc2n1,inactive,
Cc1cccc(C)c1NC(=O)Cn1c(=O)n(Cc2ccccc2)c(=O)c2c(C)c(C(=O)N(C)C)sc21,"inconclusive: 1.12 µM [inhibitor, full curve, poor fit]",
Cc1ccc(S(=O)(=O)Cc2nc(-c3ccc(C(=O)NC4CCCC4)cc3)oc2C)cc1,,inconclusive: -30.5% [inhibitor]
CSc1cccc(NC(=O)CCc2ncc(-c3ccccc3F)o2)c1,inactive,
CCCn1cnc2c1CN(S(=O)(=O)Cc1ccccc1)[C@H](C(=O)OC)C2,active: 39.8 µM,
O=C(NCc1cccs1)c1csc(N2CCN(c3ccccc3F)CC2)n1,inactive,
O=C(c1cccc(-n2cnnc2)c1)N1CCCC(O)(CN2CCCC2)C1 (stereo not drawn),"inconclusive: 22.4 µM [inhibitor, partial curve, poor fit]",
CCCCCCCOC(=O)c1c(C)oc2ccc(NS(=O)(=O)c3cccs3)cc12,"inconclusive: 35.5 µM [inhibitor, partial curve, poor fit]",
O=c1c2c(CO)c(-c3ccc(F)cc3)nn2ccn1Cc1cccc(F)c1,inactive,
CCc1noc(-c2ccn3c(CNC(=O)C4CCCCC4)nnc3c2)n1,active: 28.2 µM,
CN1CCN(c2oc(-c3ccc(C(C)(C)C)cc3)nc2C#N)CC1,"inconclusive: 39.8 µM [inhibitor, single point]",
Cc1cc(CN(C)C(=O)c2cc(CN3CCC(Cc4ccccc4)CC3)on2)n[nH]1,inactive,
COc1cc(/C=C/c2nc(C#N)c(N3CCCCCC3)o2)cc(OC)c1OC,"inconclusive: 10 µM [inhibitor, partial curve, poor fit]",
CC(c1ccccc1)N(C)C(=O)CSc1cc(C(=O)NC2CC2)c2ccccc2n1 (stereo not drawn),inactive,
COc1ccc([C@H]2C[C@@H](O)[C@@H](O)[C@@H]2NCc2cn(C)c3ccccc23)cc1,"inconclusive: 25.1 µM [inhibitor, partial curve]",
CCOC(=O)C1CCCN(C(=O)c2c(C)oc3c2CN(Cc2ccc(C)cc2)CC3)C1 (stereo not drawn),"inconclusive: 31.6 µM [inhibitor, single point]",
CCN1c2cc(C(=O)Nc3ccc(Cl)c(F)c3)ccc2C(=O)N2CCCCC21 (stereo not drawn),"inconclusive: 25.1 µM [inhibitor, partial curve, poor fit]",
C=CCN(C)C(=O)[C@@H](C)C1CC[C@@]2(C)Cc3sc(NS(=O)(=O)c4ccc(Cl)cc4)nc3[C@@H](C)[C@@H]2[C@H]1O (stereo partly drawn),active: 28.2 µM,
CSc1ccc(-c2nc(CN3CCN(C(=O)N(C)C)CC3)c(C)o2)cc1,"inconclusive: 28.2 µM [inhibitor, single point]",
CC(=O)NCC(=O)N1Cc2ccccc2CC2(CCN(Cc3ccc(O)cc3)C2)C1 (stereo not drawn),"inconclusive: 56.2 µM [inhibitor, partial curve, poor fit]",
CCN(CC)c1ccc(C2C(C(=O)Nc3ccccc3F)=C(C)NC3=C2C(=O)CCC3)cc1 (stereo not drawn),"inconclusive: 28.2 µM [inhibitor, partial curve, poor fit]",

Structure (SMILES),Potency,"activity change, negative = inhibition"
CCc1ccc(-c2cc(C(=O)OC)c3ccccc3n2)cc1,"inconclusive: 22.4 µM [inhibitor, partial curve, poor fit]",
COc1ccc(CNc2nc(NCc3ccc(OC)cc3)n(S(=O)(=O)c3ccccc3)n2)cc1,"inconclusive: 28.2 µM [inhibitor, partial curve, poor fit]",
O=C(CNCc1ccccc1Cl)Nc1ccc2c(c1)OCCO2,"inconclusive: 39.8 µM [inhibitor, partial curve, poor fit]",
CCc1nc(NCCOC)c(C#N)c2c1CCCC2,"inconclusive: 25.1 µM [inhibitor, partial curve, poor fit]",
C=C(C)COc1ccc2c(C)c(CC(=O)Nc3ccc4c(c3)OCCO4)c(=O)oc2c1,inactive,
CCN1c2cc(C(=O)N3CCCC3)ccc2C(=O)N2CCCCCC21 (stereo not drawn),"inconclusive: 28.2 µM [inhibitor, partial curve, poor fit]",
CCCCS(=O)(=O)c1oc(-c2cccs2)nc1S(=O)(=O)c1ccccc1,"inconclusive: 17.8 µM [inhibitor, partial curve, poor fit]",
Cc1ccc(C(=O)Sc2nc(C)cc(C)n2)cc1,"inconclusive: 10 µM [inhibitor, partial curve, poor fit]",
CC(C)OCCCNC(=O)c1cc(C2CC2)nc2onc(C3CCNCC3)c12,"inconclusive: 63.1 µM [inhibitor, partial curve, poor fit]",
CCOC(=O)c1ccc(N2CCN(C(C)=O)CC2)c(NC(=O)c2ccc3ccccc3c2)c1,"inconclusive: 39.8 µM [inhibitor, single point]",
O/N=C1\CC(c2ccccc2)Oc2c(Cl)cc(Cl)cc21 (stereo not drawn),inactive,
COc1ccc(NC(=O)CSc2oc(-c3cccs3)nc2S(=O)(=O)c2ccc(C)cc2)c(OC)c1,"inconclusive: 14.1 µM [inhibitor, partial curve, poor fit]",
COc1cc(CNC(=O)C(C)Oc2ccccc2)ccn1 (stereo not drawn),"inconclusive: 12.6 µM [inhibitor, partial curve, poor fit]",
CCSc1nc(-c2ccccc2OC)nc2c1Cc1c(CO)cnc(C)c1O2,"inconclusive: 15.8 µM [inhibitor, partial curve, poor fit]",
COc1cccc(C)c1NC(=O)c1cccc(CN2CCCC(C)C2)c1 (stereo not drawn),inactive,
Clc1ccc(-c2nc(C3CC3)nc3c2CCN(Cc2ccccc2)CC3)cc1,inactive,
CC(=O)N1CCOc2cc(S(=O)(=O)NCc3ccc(C)cc3)c(Cl)cc21,"inconclusive: 8.91 µM [inhibitor, partial curve, poor fit]",
COc1cccc(-c2noc(Nc3cc(OC)c(OC)c(OC)c3)n2)c1,"inconclusive: 39.8 µM [inhibitor, partial curve, poor fit]",
COc1ccc(C2(Nc3cccc(C(=O)O)c3C)C(=O)c3ccccc3C2=O)cc1,"inconclusive: 20 µM [inhibitor, single point]",
O=C(/C=C\c1ccc2c(c1)OCO2)NC1CC(=O)N(c2ccc(Cl)cc2)C1 (stereo not drawn),"inconclusive: 2.82 µM [inhibitor, partial curve, poor fit]",
Cc1cccnc1CN1C[C@@H](F)[C@@H](OCc2nc3ccccc3o2)C1,"inconclusive: 28.2 µM [inhibitor, partial curve]",

Structure (SMILES),Potency,"activity change, negative = inhibition"
Cc1ccc(-c2cc(C(=O)OCC(=O)N3CCCC3)c3ccccc3n2)o1,"inconclusive: 39.8 µM [inhibitor, single point]",
N#CCCN1CCN(C(=O)c2cn3ccnc(-c4ccc(F)cc4)c3n2)CC1,inactive,
O=C(Nc1cc(-n2cnnn2)ccc1Cl)c1ccncc1,inactive,
COc1cccc(-n2cc(C(=O)NCCc3ccc(C)cc3)c3ccccc3c2=O)c1,"inconclusive: 35.5 µM [inhibitor, single point]",
COc1cccc(Nc2nc(-c3ccc(S(=O)(=O)N4CCOCC4)cc3)cs2)c1,"inconclusive: 8.91 µM [inhibitor, full curve, poor fit]",
C=CCN1[C@@H](Cc2ccccc2)COc2cccc(N3CCCC3)c2S1(=O)=O,"inconclusive: 28.2 µM [inhibitor, single point]",
COc1cc(OC)c(NC(=O)Cn2ccn3nc4c(c3c2=O)CCCC4)cc1Cl,"inconclusive: 39.8 µM [inhibitor, single point]",
c1ccc2c(c1)C(=Nn1c3ccccc3c3ccccc31)c1ccccc1-2,inactive,
Cc1cccc(-n2nc(CC(N)=O)nc2-c2ccc(Cn3cccn3)o2)c1C,"inconclusive: 22.4 µM [inhibitor, single point]",
CN(C)C[C@@H]1CN(Cc2ccccn2)C[C@H]1NS(=O)(=O)Cc1ccccc1,"inconclusive: 25.1 µM [inhibitor, single point]",
N#Cc1cccc(CN(Cc2cccc(C#N)c2)[C@@H]2CO[C@H](CNC(=O)c3ccccc3)[C@H]2O)c1,inactive,
Cn1c(C(=O)N2CCN(c3ccccn3)CC2)cc2c1CCN(Cc1ccccc1)C2,"inconclusive: 25.1 µM [inhibitor, single point]",
COCCOC1CCOC2(CCN(C(=O)c3ccc(OC)c(OC)c3)CC2)C1 (stereo not drawn),"inconclusive: 28.2 µM [inhibitor, single point]",
CN(C)CCN(Cc1ccccc1)S(=O)(=O)c1ccc2[nH]c(=O)ccc2c1,"inconclusive: 44.7 µM [inhibitor, single point]",
COc1ccc(Br)cc1CN1CCN(c2ncccn2)CC1,"inconclusive: 14.1 µM [inhibitor, partial curve, poor fit]",
Cc1occc1C(=O)Nc1nc(CC(=O)Nc2ccc3c(c2)Cc2ccccc2-3)cs1,inactive,
CN(C)c1cc(CNC(=O)c2nccnc2N)ccn1,"inconclusive: 28.2 µM [inhibitor, partial curve, poor fit]",
COc1cc(-c2nc(Cn3nnc(C(=O)Nc4ccccc4)c3C)c(C)o2)cc(OC)c1OC,"inconclusive: 28.2 µM [inhibitor, partial curve, poor fit]",
Cc1csc(NC(=O)[C@@H]2C[C@@H](c3cccc(C(F)(F)F)c3)N(Cc3cnn(C)c3)C2)n1,inactive,
COc1cncc(N2CC3(COCC(=O)N(Cc4ccccc4)C3)C2)c1,"inconclusive: 35.5 µM [inhibitor, partial curve, poor fit]",
Cc1c(C(=O)N2CCCC2)oc2c1-c1nn(CC(=O)NCCCOC(C)C)cc1CC2,"inconclusive: 1.78 µM [inhibitor, full curve, poor fit]",
